Data published in the supplement of paper PMC10126150.
Values marked as one replicate rest on one cluster of the flow cell; about a third of the high ones do not repeat.

Test system: ATP
Experiment: switch fluorescence ratio, 500 uM ATP over buffer (Cy3 cluster intensity, sum of 5 cycles each) (fold (ratio)); higher = stronger signal-on switching upon ATP binding; sequences stand for … in TCGTCGGCAGCGTCAGATGTGTATAAGAGACAGTTTTTTTTTTTTTTTTTTTTTTTTT…TC
Conditions: aptamer strand: ATP DNA aptamer (quencher-CACCTGGGGGAGTATTGCGGAGGAAGG + anchor), 100 nM annealed; ATP concentration: 500 uM; one replicate
Method in brief: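 Imaging in selection buffer was followed by imaging after 15 min with 500 uM ATP at 22 °C, for Cy3-labelled switching-strand clusters annealed to 100 nM quencher-labelled ATP aptamer on a modified Illumina MiSeq flow-cell. Five of these buffer/ATP cycles ran, separated by NaOH stripping and re-annealing. The fluorescence ratio per cluster is summed target-cycle over summed buffer-cycle Cy3 intensity, averaged per switch-domain sequence; clusters outside 100-1000 RFU were removed.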
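Also: ATP exposure 15 min at 22 °C before imaging.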

Sequence	switch fluorescence ratio
AGCCCGTCTG	1.03
CCATGACATA	1.02
CTGTGCGTGC	1.09
TTAACGAGGC	1.05
CAAAGGTGAA	1.08
TTCTGCGCTT	1.24
GAACCGTTTA	1
GCGCGGGCGG	0.978
AGATGGGTGA	1.01
GTGCGGGAAG	0.994
TCTTCTTCGG	1.01
GTTCACCCCC	1.69
CCACCGGAAG	1.27
CGCCTGTACA	1.02
TGATGTTTTG	0.988
TTAGTTTCAC	0.975
CCAGGGAAGG	1.11
TTTCATGAGC	1.01
ACCGAGATCG	1.03
ACTAAGGGCC	1.02
ACCAATGGGT	1.04
GTCCAAGATT	0.963
TCGTTTAGTC	0.961
CTAAACAATT	0.991
GCAGTGTAAC	1.02

Sequence	switch fluorescence ratio
GACCTCACCA	1.2
CTGTTAGTAT	0.968
TCCATGCAGT	1.11
TGGCGAACG	0.978
AAATACAGAA	1
CATTGCCGCG	1.02
GCTTCCGATG	2.95
AATAAAGGTG	1.24
TCCCAGAGGT	1.1
CGTAGTTAC	2.38
ACGCAGCTTT	1.89
TTAGCAGGCC	0.925
TTCATCTTAA	0.962
ATTATGCGTG	0.995
TAGAGCACAT	1.09
CCGTCAGGCA	1.03
CTTCACTGTG	1.01
CACTTTTTAG	0.986
AAGTGATAAT	1.02
TGGCACTAGT	0.972
GGTGAATGGT	1
CGGCAGCGGC	1.05
TCTTCCAGAT	1.03
TTGGGCTCCG	1.22
CTGCTGAGAG	0.964

Sequence	switch fluorescence ratio
TGCGACCTGA	1.1
AGACATGGAT	1.03
AGCACGCTAC	2.31
CATCCTTCGG	1.05
CATTACCTCG	1.03
AGAGTCCTCC	0.994
TGGGCAAAT	1.02
TGTGATTCTG	0.95
AGAGGTGGGT	1.02
GATCGTTCAG	0.969
ATGCCTCCG	1.77
TCTTTAAAAG	0.993
GAGGCCTGA	0.974
ACAGCCTCAA	0.914
TGGGTGGGAG	0.987
GGGGCCACCA	1.16
CACTGAGGTT	1.04
CGACAGACTT	1.08
ACAACCGGGA	1.13
AGGATTCGAG	0.984
CGGCTCTTGC	0.98
ATTTCTAAAC	0.985
CTCGTGCAGC	1.18
TAGGCCATAC	2.33
CACCACAGAT	1.05

Sequence	switch fluorescence ratio
ATTGCTGTGG	1.01
GACGAAAACG	1.04
GGTATAGAAA	1.05
ACAATGTTC	1
GGAACGTACC	1.73
AGGCTGGGTA	1
AATAATATCC	1.02
CAGTAGTTAG	0.983
TGTTTTTGCG	0.913
TTTCCTCTTG	1.09
GCCCCTTCAG	0.995
TATCTAGCCT	1.05
GACCCGTTCT	1.06
CCGTCGAGTG	1.05
CATAGTGGGC	0.96
CGAGTAAAAA	1.09
TAGTAAACTC	0.989
TATCGCTAGC	1.05
GTGATGGAAG	0.989
GGGATAAGCG	0.979
GGGGTTCCCT	1.05
AAGGATTTGC	1.06
GAATAAGTCG	0.981
TCGGAATTTA	0.989
ACCTAAATTG	0.977

Sequence	switch fluorescence ratio
TGATTGCATG	0.98
GATGTCGT	1
AGGAGGGATC	1.01
GGGTCATAAG	0.975
CTTGCGCAAC	3.72
AAAGTGGCAG	1.01
AGGAACCTCC	1.73
GGAATTCTGA	1.02
AACGATGGAA	0.981
GGACAACCTT	1.68
AGATATGTG	1
CAAATCGTGT	0.968
TACATCTGTA	0.955
TCCATGAACT	1.02
CGGAGACTCC	1.21
GGAGTTGGGC	0.861
CTGGGTGACG	1.02
CAATCACGCA	1.19
ATGTCCAGAA	1.04
AAGAATGGGG	1.03
GCTGCATTCA	1.02
TTCCCGAAAT	1.17
GCACTGATGG	0.96
AGGTAGTGAA	0.975
ATTTATTTAC	1.1

Sequence	switch fluorescence ratio
AATTCGCATG	1.06
ACCACTATAT	1.09
ATATCTGACT	0.942
CGCAATGTCG	1.04
TGACGGCTCG	1.06
GTTCGTTGCT	0.952
GTGATATCAC	1.01
ATGTTCTACT	1.02
ACGCAGTTAG	1.09
CTGCAATATC	1.24
AGTCCCGAGT	0.979
ACGCTCGTTG	1.03
TCGGTAAAGT	1
CCTGAACCGA	1.2
CATGGCTGTT	1.04
CCTCGTCTGT	1.48
CGGAATTCAA	0.99
AGCGCTTCTG	0.977
ACTTCGGCCA	1.04
TTGGGAAAAG	0.965
GCATTCAAGG	0.99
CTAATCGACT	1.02
GCGACAGGTA	1.02
ATCCCCCACC	1.15
GGATGAATTA	0.973

Sequence	switch fluorescence ratio
CTAAGTGCGG	0.995
CGGTGTCGCG	1.01
TTTACATATA	1.06
TTTCTCGCTC	1.08
CAAAACAGAA	0.991
ACGCGGTAAA	1.02
GCACGTAGTG	0.98
GCCCACCTAT	1.05
TTAAATTAAG	0.964
AGAAGAGCCC	1.05
AATTAGACTG	0.969
GCTGGGCGAA	0.992
GGTACCTACC	1.2
ACATCATTCA	1
GAAGCTCAAA	1.01
GAGATATGTT	0.973
TAACCTGCTT	1.05
ATGTCTAGTC	0.979
AATTACCATA	1.05
TTCTTGGATA	0.972
TTCAGGTATA	1.01
GCTGTTATAA	1.01
GCGTTGTGTT	0.931
CGCATCCTC	2.46
CATTGGTTTT	0.978

Sequence	switch fluorescence ratio
GGTAAGGCCT	0.966
CTTAAAACCA	0.971
CTGAGGGTGA	1.01
GCGAAAGTCA	1.03
TGAATAAACT	1.02
TACAAGGTTG	1.03
ATGAGCAATT	1.78
GCCTCATCGA	1.05
GGTTTCGTG	0.992
CGGTGAGGAG	0.942
AGTTAATTA	1.02
AAGTGGCGGC	0.993
GTGTTTGCAT	0.992
AAACTTATC	1.06
CGTAGCGTT	1.21
GAATTTCAGG	1.05
AAACGCAGG	0.972
CAGACTTG	0.964
AATTGTACCG	1.02
CAGCACTCAG	1.05
AGGCTCCTAG	0.974
TGCTGTGCCC	0.986
CAGAGTTCTT	0.994
TGCCAATTT	0.992
GTATCTGGTG	1.05
